In the supplement of paper PMC10126150:
Values marked as one replicate rest on one cluster of the flow cell; about a third of the high ones do not repeat.

System: ATP
Assay: switch fluorescence ratio, 500 uM ATP over buffer (Cy3 cluster intensity, sum of 5 cycles each) (fold (ratio)); higher = stronger signal-on switching upon ATP binding; sequences stand for … in TCGTCGGCAGCGTCAGATGTGTATAAGAGACAGTTTTTTTTTTTTTTTTTTTTTTTTT…TC
Conditions: aptamer strand: ATP DNA aptamer (quencher-CACCTGGGGGAGTATTGCGGAGGAAGG + anchor), 100 nM annealed; ATP concentration: 500 uM; one replicate
How it was run: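 Imaging in selection buffer was followed by imaging after 15 min with 500 uM ATP at 22 °C, for Cy3-labelled switching-strand clusters annealed to 100 nM quencher-labelled ATP aptamer on a modified Illumina MiSeq flow-cell. Five of these buffer/ATP cycles ran, separated by NaOH stripping and re-annealing. The fluorescence ratio per cluster is summed target-cycle over summed buffer-cycle Cy3 intensity, averaged per switch-domain sequence; clusters outside 100-1000 RFU were removed.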
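Note: ATP exposure 15 min at 22 °C before imaging.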

| Sequence | switch fluorescence ratio |
| --- | --- |
| GAGGTTTCG | 0.953 |
| ACGGACGTCT | 0.996 |
| TGACTATTGA | 1.01 |
| CGTGTGAAAC | 1.04 |
| ACTTATGTCC | 1.05 |
| GCCCAGGGTA | 1.42 |
| TTTTAAACA | 1.03 |
| GATAACTTTG | 1 |
| TAATTTTGG | 1.03 |
| TGCTCACAGT | 1 |
| TTGCGACAAA | 1.03 |
| CAGACAAACC | 1.15 |
| TTCCTTTCA | 1.13 |
| AACATAGAGG | 1.01 |
| TATCATGTTT | 1.07 |
| TGTTAACGTC | 1.04 |
| GCTTGACCTG | 1.01 |
| ACTTTCGGAC | 2.43 |
| TCACAGTAT | 1.15 |
| GTCCAATTTT | 1.01 |
| CAACGTCGTG | 0.973 |
| AGTCGGTATC | 0.965 |
| AGGCTCGGGC | 0.947 |

| Sequence | switch fluorescence ratio |
| --- | --- |
| TTCTAGGATA | 0.984 |
| TGAGAGACCC | 1.04 |
| CAGTTCTCGC | 0.972 |
| TCGATCGTCC | 1.03 |
| AGAAGATCCC | 1.03 |
| AATGTTCGG | 0.973 |
| TAGGATTATC | 1 |
| ACGGGGTACA | 1.08 |
| CTCATTGCTG | 0.925 |
| CCCGGTTCTC | 1.08 |
| AGAAATGGTG | 1.03 |
| TCCACATGTC | 1.07 |
| GAGCAAACGT | 1.24 |
| GGGTTTAACT | 1.06 |
| AAAATTATA | 0.969 |
| AGTGACGGT | 1.02 |
| TCGCCCTGCC | 1.04 |
| CTAGCAGTTT | 1.04 |
| TCGGCTAAAA | 1.04 |
| TTAGTAAGCC | 1.05 |
| TAGTACTTCC | 1.95 |
| GGTCGTTAAC | 0.987 |
| AGGCGTACCG | 0.982 |

| Sequence | switch fluorescence ratio |
| --- | --- |
| CGGGACGGTG | 1.03 |
| TATTCGTGCA | 1.04 |
| ATGAAAAGCT | 1.05 |
| CGGGATTCG | 0.964 |
| TTGCATCTTA | 0.997 |
| GAAGAAGAAC | 1.03 |
| GTTGGCGA | 1 |
| CCTGTTGATA | 1.01 |
| GGGAGCTCAG | 0.979 |
| TAGGGGATCG | 1.05 |
| AACCAGGCAT | 0.962 |
| TTCTGGCGGT | 0.967 |
| TTGCAGTCGT | 1.03 |
| CCATGAATGG | 0.983 |
| CGGCCGGTCG | 1.04 |
| GGGGCCGGAT | 1.12 |
| CAGTGAAGT | 0.988 |
| CATGCATCGT | 1.05 |
| CGCCAAAGAA | 0.984 |
| CTACACTATT | 1.04 |
| CTCGGGTGGC | 0.985 |
| CCATGTATCC | 1.04 |
| TTGCGGAAAT | 0.975 |

| Sequence | switch fluorescence ratio |
| --- | --- |
| TAATTCGCCG | 1.03 |
| TGAATGTCGG | 0.994 |
| GACCGCTCGC | 1.55 |
| ATCATAGTCT | 0.965 |
| GGCCGTGGCC | 1.04 |
| AGACATCTTG | 0.89 |
| CACTAGAGTC | 0.996 |
| CCCTCGGGCA | 1.39 |
| AAGTTTAACT | 1.03 |
| TATATGAAAG | 0.982 |
| TCGTAGAGTT | 0.989 |
| CGTTGGCGCG | 0.964 |
| CCGGCGTGTA | 1.1 |
| TCGGTGTCGT | 1.04 |
| GAACGGACAG | 1.34 |
| GCTTGTGTGC | 1.01 |
| AGGTATGTTA | 0.967 |
| TTAACTACTT | 1.03 |
| CCCTAGACTT | 0.985 |
| CATACAAGCC | 1.01 |
| ATACCATGC | 1 |
| TAAGACTTTT | 0.972 |
| GAGAATCCA | 1.03 |

| Sequence | switch fluorescence ratio |
| --- | --- |
| ATTGTGGAAT | 0.984 |
| GGACTATGTA | 1.02 |
| TACGTCATCC | 1.27 |
| GGGGTTACCT | 1.07 |
| CCCGATGGG | 0.967 |
| AACCCGTTT | 0.999 |
| TTCCGTTGCC | 1.88 |
| CGCCGAGCTG | 1.04 |
| CATGTAGTTT | 0.975 |
| AAGGCCGCAG | 1.15 |
| GCTTATAACT | 0.965 |
| TAAAATGGCC | 0.973 |
| TCTCTCTAGT | 0.991 |
| GGATGTTAGG | 0.994 |
| TCTGTCTTAT | 0.988 |
| CAGGTTCCGT | 0.991 |
| ATATTCTTCA | 1.08 |
| CCGCACGTCG | 1.53 |
| ATAAAATGA | 1.02 |
| GAATGTAAGC | 1.01 |
| GTTATGAGCG | 1 |
| AGCCACTGGG | 1.06 |
| ACATGTCGAA | 0.995 |

| Sequence | switch fluorescence ratio |
| --- | --- |
| CATTATCGTT | 0.991 |
| CGGATCAAAT | 1 |
| ACACAGACGG | 1.61 |
| TTCCTGGATC | 1.01 |
| TAGCGGATGG | 0.935 |
| ATGCAGTCTG | 0.978 |
| AACTCTTCTG | 1 |
| TCAAGTGATC | 1.03 |
| GGATACTCGA | 1.01 |
| CTTAAGAAGC | 1.02 |
| TACGAAGGA | 0.98 |
| TATCAACCAA | 0.977 |
| CGCAATGCGT | 4.98 |
| TACCATGTAT | 1.04 |
| GTTATCGCAT | 1.04 |
| CGTGCCATTC | 1.03 |
| AACAGGACGG | 1.07 |
| TTAGGCTGG | 1 |
| ATTAATTCGG | 1.02 |
| TATATATTAT | 0.934 |
| GGAGGCACCG | 1.03 |
| CCTGTTCCTT | 1.02 |
| TCACCTAG | 1.06 |

| Sequence | switch fluorescence ratio |
| --- | --- |
| CCGGTCCAAG | 1.17 |
| CAGTGTAGTT | 1.02 |
| CATGTAGGGC | 1 |
| GTTTTCCCTC | 1.03 |
| CCCGGTTACG | 0.974 |
| TTCCAGCGCC | 1.32 |
| TTCCAGGCAG | 1.05 |
| TACGCGTAGA | 1 |
| GCCTTCATGA | 1.02 |
| ATTGCCATTT | 1.24 |
| GGTCGTCTTC | 0.999 |
| GGCGAGGCGG | 0.98 |
| TAAATATTCT | 1.01 |
| AAGAGATCAC | 0.97 |
| CCCTTGTACT | 1.05 |
| GCGCCAAGTT | 0.966 |
| TGGGGCCATA | 0.998 |
| GCGCTTAT | 1.05 |
| GCTGCACATC | 1.65 |
| ACCTTCTAAT | 1.14 |
